45 compounds from article PMC4336329 (PLoS ONE, 2015) can be followed below.

The campaign covered roughly 310,000 compounds. About 2,200 (0.71%) showed an effect of 50% or more. The effect is printed as a negative number. Some of the results follow.

Chain of human ether-à-go-go-related gene (hERG) potassium channel (Q12809 whole entry, looked up): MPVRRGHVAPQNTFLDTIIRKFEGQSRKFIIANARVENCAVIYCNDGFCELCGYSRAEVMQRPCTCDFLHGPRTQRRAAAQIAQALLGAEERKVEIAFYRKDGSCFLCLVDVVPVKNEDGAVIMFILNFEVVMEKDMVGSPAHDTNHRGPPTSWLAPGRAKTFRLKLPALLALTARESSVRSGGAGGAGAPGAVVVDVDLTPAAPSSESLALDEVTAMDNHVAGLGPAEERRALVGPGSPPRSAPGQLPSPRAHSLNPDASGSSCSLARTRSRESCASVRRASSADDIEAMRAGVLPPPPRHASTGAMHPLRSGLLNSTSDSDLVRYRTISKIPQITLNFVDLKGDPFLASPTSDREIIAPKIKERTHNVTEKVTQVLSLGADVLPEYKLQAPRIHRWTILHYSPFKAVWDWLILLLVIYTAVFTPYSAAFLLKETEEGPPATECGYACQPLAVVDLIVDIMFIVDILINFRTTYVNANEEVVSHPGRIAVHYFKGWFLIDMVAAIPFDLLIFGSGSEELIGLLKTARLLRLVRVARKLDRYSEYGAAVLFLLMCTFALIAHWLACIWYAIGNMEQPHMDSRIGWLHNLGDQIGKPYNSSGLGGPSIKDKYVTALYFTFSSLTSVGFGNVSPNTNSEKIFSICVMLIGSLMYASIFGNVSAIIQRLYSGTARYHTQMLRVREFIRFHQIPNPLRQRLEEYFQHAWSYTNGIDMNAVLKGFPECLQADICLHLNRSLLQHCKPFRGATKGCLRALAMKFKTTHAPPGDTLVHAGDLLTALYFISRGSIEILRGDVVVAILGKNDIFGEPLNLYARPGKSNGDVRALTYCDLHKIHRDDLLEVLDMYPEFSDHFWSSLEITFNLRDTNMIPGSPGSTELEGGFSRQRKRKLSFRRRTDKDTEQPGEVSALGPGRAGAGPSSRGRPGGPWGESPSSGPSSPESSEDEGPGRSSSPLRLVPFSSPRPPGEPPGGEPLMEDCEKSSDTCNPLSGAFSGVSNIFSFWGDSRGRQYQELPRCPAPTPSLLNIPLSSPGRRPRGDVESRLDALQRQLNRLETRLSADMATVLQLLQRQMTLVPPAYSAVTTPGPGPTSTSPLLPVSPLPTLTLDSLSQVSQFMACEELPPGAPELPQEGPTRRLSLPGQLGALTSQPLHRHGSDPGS

The test concerns the target human ether-à-go-go-related gene (hERG) potassium channel (human, UniProt Q12809). In words: primary screen, population patch clamp on CHO cells stably expressing hERG.
Regarding `O=C(c1ccccc1)c1ccc(N2CCOCC2)c(NC(=O)c2ccco2)c1`, the “hERG current change (%, negative = inhibition) at 1uM” value came to 2.13%.
Take `O=c1c2c(-c3ccco3)csc2nc(SCc2cn3cccnc3n2)n1-c1ccccc1`: the “hERG current change (%, negative = inhibition) at 1uM” value was 4.86%.
Consider `CCCCCc1nnc(NC(=O)Cc2ccc([N+](=O)[O-])cc2)s1`, for which the “hERG current change (%, negative = inhibition) at 1uM” value is 18.3%.
The result for `Cc1cc(NC(=S)N(CCN2CCCCC2)Cc2ccco2)ccc1Cl` reads 12.7%; that for `CSc1nc(O)c(N=Nc2ccc(F)cc2F)c(=O)[nH]1`, 7.93%.
As to `COc1cc(NS(=O)(=O)c2ccc(C)cc2C)cc(OC)c1OC`, the “hERG current change (%, negative = inhibition) at 1uM” value turned out to be 1.51%.
Consider `CC(C)OC(=O)c1cc(NC(=O)C2C3CCC(O3)C2C(=O)O)cc(C(=O)OC(C)C)c1` (stereo not drawn), for which the “hERG current change (%, negative = inhibition) at 1uM” value is 3.57%.
Regarding `Br.O=[N+]([O-])c1cccc(-c2csc(Nc3ccccc3)n2)c1`, the “hERG current change (%, negative = inhibition) at 1uM” value amounted to 13.8%.
With `COc1ccc(OC)c(C2C(C#N)=C(N)Oc3c2c(C)nn3-c2ccc(C)cc2)c1` (stereo not drawn) the figure was 4.3%; with `Cc1ccccc1C(=O)Nc1ccccc1`, 6.1%.
In the case of `Cc1cc(OC(=O)c2c(Cl)cc(Cl)cc2Cl)nc(C)n1`, the “hERG current change (%, negative = inhibition) at 1uM” value turned out to be 10.1%.
With `Cc1nc(SCc2ccccc2)c2ccsc2n1` the figure was 17%; with `CCCN1C(=O)c2ccc(C(=O)Nc3cc(C)ccc3O)cc2C1=O`, 12.9%; with `CCCCOCCCNC(=O)C1CCCCC1`, 0.827%.
Take `COc1ccc(S(=O)(=O)Nc2cc(C(=O)NC3CCCCCC3)ccc2N2CCOCC2)cc1`: the “hERG current change (%, negative = inhibition) at 1uM” value is listed as -21.2%.
With `CCOC(=O)/C(=N\Nc1ncnc2ccccc12)c1ccc(OC)cc1`, the “hERG current change (%, negative = inhibition) at 1uM” value stood at 5.05%.
For the compound `N=C(N)c1ccc(O)cc1`, the “hERG current change (%, negative = inhibition) at 1uM” value was determined as 10.9%.
With `NS(=O)(=O)c1ccc(CCNS(=O)(=O)c2ccccc2)cc1` the figure was 10.8%.
`COC(=O)c1ccc(NC(=O)Nc2ccc(OC)cc2)cc1`: the “hERG current change (%, negative = inhibition) at 1uM” value was 20.9%.
The result for `CCN(CC)CCN(C(=O)c1ccc(N2C(=O)CCC2=O)cc1)c1nc2cc3c(cc2s1)OCO3.Cl` reads -7.59%; that for `COc1cc(NC(=O)c2nn(C)c3c2CS(=O)(=O)c2ccccc2-3)cc(OC)c1`, 3.64%.
As to `COc1ccc2oc(=O)c(C(=O)NCc3cccnc3)cc2c1`, the “hERG current change (%, negative = inhibition) at 1uM” value is 12.8%.
Take `CC(=O)C(Sc1ncnc2c1nnn2-c1ccc(F)cc1)C(=O)N(C)C` (stereo not drawn): the “hERG current change (%, negative = inhibition) at 1uM” value was 10.9%.
With `CCCOc1ccc(C(C)=O)cc1CSCCC#N` the figure was 9.61%.
In the case of `CC(=O)N1CCc2cc(S(=O)(=O)Nc3ccc(C)cc3)ccc21`, the “hERG current change (%, negative = inhibition) at 1uM” value is listed as 13.6%.
With `CCCN1C(=S)SC(C)(C)C1/[N+]([O-])=C/c1cccnc1` (stereo not drawn) the figure was -6.75%; with `COc1ccc(CC(NC(C)=O)C(=O)NC2CCN(c3c(Cc4ccccc4)c(C)nc4ncnn34)CC2)c(OC)c1` (stereo not drawn), 10.9%.
The result for `Cc1c(NC(=O)C(C)Sc2nnc(-c3ccccc3)o2)c(=O)n(-c2ccccc2)n1C` (stereo not drawn) reads 5.74%; that for `COc1ccc(C2=NN(C(=O)CSc3nc4ccccc4s3)C(c3ccc(F)cc3)C2)cc1` (stereo not drawn), 13.6%.
As for `O=C1C2C(c3ccccc3)CC=CC2[C@H](c2ccc(C(F)(F)F)cc2)N1Cc1ccccc1` (stereo partly drawn), the “hERG current change (%, negative = inhibition) at 1uM” value was -0.0453%.
With `Cc1ccc2cc3c(NC(=O)CC(C)C)nn(C)c3nc2c1` the figure was 6.72%; with `CCc1c(C)nc2ccc(Br)cc2c1Cl`, 0.877%.
With `O=C(Cc1cccc(C(F)(F)F)c1)NCc1ccc(Cl)cc1Cl` the figure was 3.91%; with `Cc1cccn2cc(-c3c[nH]c4ccccc34)nc12`, -3.26%; with `CC(C)c1ccc(NC(=S)NNC(=O)c2cccs2)cc1`, 12.8%.
On to `Cc1cc(Br)c(S(=O)(=O)NCc2ccncc2)cc1C`, for which the “hERG current change (%, negative = inhibition) at 1uM” value is reported as 9.59%.
With `COc1ccc(C(=O)/C=C/Nc2ccc(S(=O)(=O)Nc3ncccn3)cc2)cc1` the figure was 5.41%.
The result for `CC1=C(C(=O)Nc2ccc(C(=O)NCCCN3CCCCC3)cc2)SCCO1` reads 7.81%.
As to `O=C(NC1CCCCNC1=O)c1ccc(Cl)cc1` (stereo not drawn), the “hERG current change (%, negative = inhibition) at 1uM” value is given as 15.1%.
For the compound `Fc1ccc(-c2cn3cc(C(F)(F)F)cc(Cl)c3n2)cc1`, the “hERG current change (%, negative = inhibition) at 1uM” value turned out to be 3.46%.
The result for `CC(C)CC(NC(=O)c1ccc(Cl)cc1)C(=O)OCC(=O)c1ccc2c(c1)NC(=O)CO2` (stereo not drawn) reads 6.16%; that for `Cc1cc(C)n(-c2ncnc3sc4c(c23)CCCC4)n1`, 9.93%; that for `CC1CCOC2(O1)C(=O)N(CN1CCN(c3ccccc3F)CC1)c1ccccc12` (stereo not drawn), 0.921%.
The result for `COc1cc2[nH]c(=S)nc(NCc3ccccc3)c2cc1OC` reads 14%; that for `COc1ccccc1-c1nnc(SC(C)C(=O)N2CCOCC2)o1` (stereo not drawn), 3.17%.
